Laboratory results from patent US12419305B2, “Antimicrobial compositions” (Firmenich SA, priority 2018, dated 2025).
Several values for one entry are separate records, joined by “and”; a condition that tells them apart may be missing. Equal values may be shown once. At least one read-out could not be matched to a standard name with certainty.

What was measured:
[1] = tested on: S. aureus ATCC 6538; test: BCT test (bacterial contact time), 60 s, log reduction / effect fraction; CI by Compusyn; format: cell-based, Staphylococcus aureus; conditions: 60 s, in 25% EtOH
Experimental: (§1) E. coli, S. aureus, P. aeruginosa, and S. enterica: Separate suspensions of the E. coli ATCC 10536 strain, S. aureus ATCC 6538 strain, Pseudomonas aeruginosa ATCC 15442 strain, and the Salmonella enterica ATCC 10708 strain were prepared as follows: Stock cultures (stored at −80° C.) were thawed and sub-cultured onto Tryptic Soy Agar (TSA) agar plate media, and incubated at 37° C. for 24 h to obtain single colonies. Single colonies of the primary cultures were streaked onto TSA plates and incubated at 37° for 24 h to generate secondary cultures. Single colonies of secondary cultures picked and used to inoculate into 50 mL of TSB broth. The inoculated TSB broth was incubated at 37° C. at 180 rpm for 18 h. Aliquots (0.5 ml) of the 18 h culture were inoculated into 50 ml of fresh TSB broth, and incubated at 37° C. at 180 rpm for 2-3 hours. When the OD600 nm value of the broth reached 1-2, cells were harvested by centrifugation at 5000 rpm for 10 min, and then resuspended in fresh TSB broth at a concentration of 1-5×10^8 CFU/mL. These suspensions were used as the bacterial suspensions for the BCT test.
(§2) BCT Test: Test compositions at a range of concentrations (either combinations of more than one perfume ingredient, and comparative compositions comprising the single perfume ingredients) were prepared in ethanol. Five replicates of each test composition were added into 96-well microtiter plates (120 μl per well), with row B containing control compositions containing the ethanol solution alone. 120 μl of bacterial cell suspensions at a concentration of approximately 1×10^8 bacteria per mL (as prepared above) were added to each well of the microtiter plate. The bacterial suspensions were incubated with the test solutions for 45, 60, or 120 seconds. Following the incubation of the bacterial suspensions with the test solutions, serial dilutions of the bacterial suspensions were generated (three serial 1:10 dilutions, followed by 17 serial 1:2 dilutions), in multiwell microtiter plates.
(§3) Each plate was sealed and incubated at 37° C. under agitation (180 rpm). After incubation, the turbidity of the wells (OD600 nm) was determined using a Tecan microplate reader. Turbid wells were regarded as positive growth, due to the presence of viable cells. The total number of viable cells (log CFU) for each sample was calculated. And the log reduction for each test composition at the final concentration (dose) was calculated against the control sample of the ethanol solution.
(§4) Determination of Synergy via the Combination Index (CI): The CI was calculated using Compusyn software (ComboSyn, Inc., as created by Dr. Dorothy Chou in 2005), according to the manufacturer's instructions. The concentration of each test composition (combinations of more than one perfume ingredient, and comparative compositions comprising the single perfume ingredients used to generate the combination) and their corresponding effect fraction was entered, and the corresponding CI calculated.
(§5) When the calculated CI values were less than 0.9, the combination of perfume ingredients was regarded as having synergistic effect. When the calculated CI was between 1.0 a 0.9, the combination of perfume ingredients was regarded as having an additive effect. When the calculated CI was greater than 1.0, the combination of perfume ingredients was regarded as having an antagonistic effect.

[2] = tested on: Pseudomonas aeruginosa ATCC 15442; test: as above; format: cell-based; conditions: BCT 60 s, in 25% EtOH
Experimental: as §1, §2, §3, §4, §5

[3] = tested on: E. coli ATCC 10536; test: BCT test (bacterial contact time), 45 s, log reduction / effect fraction; CI by Compusyn; format: cell-based, Escherichia coli; conditions: 45 s, in 20% EtOH
Experimental: as §1, §2, §3, §4, §5

[4] = tested on: Salmonella enterica ATCC 10708; test: BCT test (bacterial contact time), 60 s, log reduction / effect fraction; CI by Compusyn; format: cell-based; conditions: BCT 60 s, in 25% EtOH
Experimental: as §1, §2, §3, §4, §5

[5] = tested on: S. haemolyticus 114126; test: BCT test (bacterial contact time), 120 s, log reduction / effect fraction; CI by Compusyn; format: cell-based, Staphylococcus haemolyticus; conditions: contact 120 s, 25% EtOH
Experimental: S. haemolyticus: Suspensions of the S. haemolyticus 114126 strain, isolated from skin, were prepared as follows: Stock cultures (stored at −80° C.) were thawed and sub-cultured onto TSA-TW80 agar plate media, and incubated at 37° C. for 24 h to obtain single colonies. Single colonies of the primary cultures were streaked onto fresh TSA-TW80 plates and incubated at 37° C. for 24 h to prepare secondary cultures. Single colonies of secondary cultures were picked and used to inoculate 50 mL of BHI-TW80 broth. The inoculated broth was incubated at 37° C. at 180 rpm for 18 h. Aliquots (0.5 ml) of the 18 h culture were inoculated into 50 ml of fresh BHI-TW80 broth, and incubated at 37° C. at 180 rpm for approximately 3 hours. When the OD 600 nm value of the broth reached 1-2, cells were harvested by centrifugation at 5000 rpm for 10 min, and then resuspended in fresh BHI-TW80 broth at a concentration of 1-5×10^8 CFU/mL. This suspension was used as the bacterial suspension for the BCT test.
as §2, §3, §4, §5

[6] = tested on: C. xerosis ATCC 373; test: as above; format: cell-based, Corynebacterium xerosis; conditions: contact 120 s, 25% EtOH
Experimental: C. xerosis: Suspensions of the C. xerosis ATCC 373 strain were prepared as follows: Stock cultures (stored at −80° C.) were thawed and subcultured onto Tryptic Soy Agar media with Tween 80 (TSA-TW80), and incubated at 37° C. for 48 h. The primary cultures were subcultured onto TSA-TW80 again, to prepare the secondary cultures. Single colonies of the secondary cultures were selected and used to inoculate 30 ml brain heart infusion broth with Tween 80 (BHI-TW80). The inoculated broth was incubated at 37° C. at 180 rpm for 24 h. Aliquots (1 ml) of the 24 h culture were inoculated into 30 ml of fresh BHI-TW80 broth media, and incubated at 37° C. at 180 rpm for 48 h. Aliquots (2-3 ml) of the 48 h culture were inoculated into four 50 ml of fresh BHI-TW80 broth media, and incubated at 37° C. 180 rpm for 4-6 hrs. When the OD 600 nm reached the target value of 1.6, cells were harvested by centrifugation at 5000 rpm for 10 min, and then resuspended in the same fresh BHI-TW80 at a concentration of 10^9 to 10^10 cfu/mL. This suspension was used as the bacterial suspension for the BCT test.
as §2, §3, §4, §5

## COc1ccc(C=O)cc1 [Aldehyde Anisic, 4-methoxybenzaldehyde]
[1]; dose 0.500 % w/v
  Effect fraction: 0.09
[1]; dose 0.600 % w/v
  Effect fraction: 0.32
[1]; dose 0.650 % w/v
  Effect fraction: 0.48
[1]; dose 0.700 % w/v
  Effect fraction: 0.81
[1]; dose 0.800 % w/v
  Effect fraction: 0.94
[2]; Dose 0.3 % w/v
  Effect fraction: 0.08
[2]; Dose 0.35 % w/v
  Effect fraction: 0.21 and 0.11
[2]; Dose 0.45 % w/v
  Effect fraction: 0.82 and 0.42
[2]; Dose 0.475 % w/v
  Effect fraction: 0.78
[2]; Dose 0.5 % w/v
  Effect fraction: 0.92 and 0.51
[3]; dose 0.400 % w/v
  Effect fraction: 0.04
[3]; dose 0.450 % w/v
  Effect fraction: 0.09
[3]; dose 0.500 % w/v
  Effect fraction: 0.37
[3]; dose 0.550 % w/v
  Effect fraction: 0.92
[3]; dose 0.600 % w/v
  Effect fraction: 1.00

## OCc1ccccc1 [Benzyl alcohol]
[3]; dose 1.000 % w/v
  Effect fraction: 0.03
[3]; dose 1.200 % w/v
  Effect fraction: 0.28
[3]; dose 1.300 % w/v
  Effect fraction: 0.59
[3]; dose 1.400 % w/v
  Effect fraction: 0.81
[3]; dose 1.600 % w/v
  Effect fraction: 1.00

## Cc1ccc2c(c1)OCC(=O)CO2 [Calone, 7-methyl-2H-1,5-benzodioxepin-3(4H)-one]
[1]; dose 0.600 % w/v
  Effect fraction: 0.23
[1]; dose 0.700 % w/v
  Effect fraction: 0.36
[1]; dose 0.800 % w/v
  Effect fraction: 1.00
[1]; dose 0.900 % w/v
  Effect fraction: 1.00
[1]; dose 1.000 % w/v
  Effect fraction: 1.00
[4]; Dose 0.25 % w/v
  Effect fraction: 0.09
[4]; Dose 0.3 % w/v
  Effect fraction: 0.34
[4]; Dose 0.350 % w/v
  Effect fraction: 0.55
[4]; Dose 0.4 % w/v
  Effect fraction: 0.92
[4]; Dose 0.450 % w/v
  Effect fraction: 1.00
[2]; Dose 0.25 % w/v
  Effect fraction: 0.04
[2]; Dose 0.3 % w/v
  Effect fraction: 0.13
[2]; Dose 0.35 % w/v
  Effect fraction: 0.36
[2]; Dose 0.4 % w/v
  Effect fraction: 0.57
[2]; Dose 0.5 % w/v
  Effect fraction: 0.92
[5]; dose 0.5% w/v
  Effect fraction: 0.00
[5]; dose 0.7% w/v
  Effect fraction: 0.07
[5]; dose 0.8% w/v
  Effect fraction: 0.40
[5]; dose 0.9% w/v
  Effect fraction: 0.65
[5]; dose 1.2% w/v
  Effect fraction: 0.95
[6]; dose 0.5% w/v
  Effect fraction: 0.03
[6]; dose 0.75% w/v
  Effect fraction: 0.09
[6]; dose 1.0% w/v
  Effect fraction: 0.44
[6]; dose 1.25% w/v
  Effect fraction: 0.83
[6]; dose 1.5% w/v
  Effect fraction: 0.94

## CC(=O)OCc1ccccc1 [Benzyl acetate, benzyl acetate]
[1]; dose 0.250 % w/v
  Effect fraction: 0.11
[1]; dose 0.300 % w/v
  Effect fraction: 0.26
[1]; dose 0.350 % w/v
  Effect fraction: 0.70
[1]; dose 0.400 % w/v
  Effect fraction: 0.92
[1]; dose 0.45 % w/v
  Effect fraction: 0.97
[4]; Dose 0.15 % w/v
  Effect fraction: −0.01
[4]; Dose 0.2 % w/v
  Effect fraction: 0.25
[4]; Dose 0.225 % w/v
  Effect fraction: 0.65
[4]; Dose 0.25 % w/v
  Effect fraction: 0.84
[4]; Dose 0.3 % w/v
  Effect fraction: 1.00
[2]; Dose 0.2 % w/v
  Effect fraction: 0.16
[2]; Dose 0.25 % w/v
  Effect fraction: 0.52
[2]; Dose 0.4 % w/v
  Effect fraction: 1.00
[2]; Dose 0.45 % w/v
  Effect fraction: 1.00
[2]; Dose 0.5 % w/v
  Effect fraction: 1.00
[5]; dose 0.25% w/v
  Effect fraction: 0.03
[5]; dose 0.3% w/v
  Effect fraction: 0.06
[5]; dose 0.35% w/v
  Effect fraction: 0.18
[5]; dose 0.4% w/v
  Effect fraction: 0.34
[5]; dose 0.5% w/v
  Effect fraction: 0.84
[6]; dose 0.25% w/v
  Effect fraction: 0
[6]; dose 0.4% w/v
  Effect fraction: 0.14
[6]; dose 0.5% w/v
  Effect fraction: 0.38
[6]; dose 0.75% w/v
  Effect fraction: 0.62
[6]; dose 1.0% w/v
  Effect fraction: 0.7

## CCOC(=O)C=Cc1ccccc1 [Ethyl Cinnamate]
[3]; dose 0.025 % w/v
  Log reduction: −0.2 and 0
[3]; dose 0.030 % w/v
  Effect fraction: 0.13 and 0.14
  Log reduction: 1.1
[3]; dose 0.035 % w/v
  Effect fraction: 0.50 and 0.51
[3]; dose 0.040 % w/v
  Effect fraction: 0.74 and 0.86
[3]; dose 0.045 % w/v
  Effect fraction: 1.00 and 0.97
  Log reduction: 7.2
